# The other results are listed elsewhere or left out. The full chains were built here from the parent and the listed change. Values near 0.05 are background.
# B1: TEV protease; numbered along this chain (parent)
# chain: MGESLFKGPRDYNPISSSICHLTNESDGHTTSLYGIGFGPFIITNKHLFRRNNGTLVVQSLHGVFKVKDTTTLQQHLVDGRDMIIIRMPKDFPPFPQKLKFREPQREERICLVTTNFQTKSMSSMVSDTSCTFPSGDGIFWKHWIQTKDGQCGSPLVSTRDGFIVGIHSASNFTNTNNYFTSVPKNFMELLTNQEAQQWVSGWRLNADSVLWGGHKVFMVKPEEPFQPVKEATQL
# Variants of: B1
# Assay: raw area under fraction-flipped curve 0-4 h after induction (AUC4h, not background-subtracted), DNA-recorder readout of cleavage of the substrate (dimensionless); higher = more cleavage of the substrate by the protease variant
# Details: temperature: 34 °C; time window: 0-4 h after rhamnose induction
# Protocol: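 In vivo DNA recorder in E. coli TOP10(DE3) ΔrhaA at 34 °C. Each TEVp single-site mutant (parent TEVp 0) is paired with a single-site variant of the 7-mer TEVs (canonical ENLYFQ|S). The substrate sits between flexible linkers in a Bxb1-sfGFP-TEVs-SsrA fusion, so cleavage stabilises Bxb1 and speeds flipping of a recombination array, read by NGS. The value is the raw area under the fraction-flipped curve over 0-4 h after rhamnose induction (AUC4h), with ≥20 reads per time point. It is not background-subtracted; inactive controls average about 0.047.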
# 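Also: Bxb1 expression induced with 0.2% (w/v) L-rhamnose at OD600 near 0.5, cultures sampled hourly, flipped fraction per protease–substrate barcode pair counted by paired-end Illumina sequencing.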
Variant,area with substrate EALYFQS,area with substrate ECLYFQS,area with substrate EDLYFQS,area with substrate EELYFQS,area with substrate EGLYFQS,area with substrate EILYFQS,area with substrate EKLYFQS,area with substrate ELLYFQS,area with substrate EMLYFQS,area with substrate EPLYFQS,area with substrate EQLYFQS,area with substrate ERLYFQS,area with substrate ESLYFQS,area with substrate EVLYFQS,area with substrate EYLYFQS,area with substrate EFLYFQS,area with substrate EHLYFQS,area with substrate ETLYFQS,area with substrate EWLYFQS
N116D,0.134,0.0761,0.113,0.124,0.0923,0.1,0.113,0.106,0.105,0.11,0.123,0.115,0.0744,0.123,0.0967,,,,
N116Q,0.123,0.113,0.113,,0.103,0.0923,0.103,0.0985,,,0.129,0.109,0.102,0.0952,,0.0878,0.142,0.112,0.135
D137R,0.0951,,0.104,,0.0755,,,,0.0831,0.087,0.0846,0.0888,0.0838,0.0725,,,0.0829,0.0822,
D137L,0.0589,0.0786,0.118,0.0932,0.106,0.0869,,,,0.105,,0.078,0.0837,0.1,0.111,,0.122,0.117,0.0896
D137N,0.115,0.0938,0.085,0.11,,0.0876,0.0678,0.0886,0.121,0.113,0.116,0.112,0.0942,0.1,,,0.0701,0.102,0.0981
M122E,0.115,0.0962,,0.115,0.0924,0.0989,0.0928,0.0862,0.124,0.128,0.102,0.0908,0.115,,0.136,,0.121,0.0989,0.112
M122Q,0.129,0.0886,0.119,,,,0.105,0.102,0.0973,,0.132,,0.0973,0.101,0.0617,0.122,0.115,0.154,0.101
R102A,0.0806,0.079,0.0745,0.0769,0.0624,0.0564,0.0781,,0.0657,0.0786,0.0713,,0.0629,,,,,,0.0698
R102C,0.0577,0.0504,,0.0598,,,0.0383,0.0611,0.061,0.0688,0.0635,0.0629,0.0633,0.0553,0.0479,,0.0567,0.0554,0.071
E107A,0.143,0.0907,0.165,0.153,0.0626,0.117,0.134,,0.119,0.118,0.115,0.114,0.0959,0.104,0.142,,,,0.0799
R106F,0.125,0.0983,0.125,0.121,0.0884,0.0994,,0.0619,,0.139,0.105,0.0951,0.112,0.121,,,0.101,0.0985,
M125T,0.126,0.105,0.134,,,0.0951,0.105,0.106,0.106,0.109,0.121,0.103,0.0927,0.0984,0.118,,0.111,,0.105
M125N,0.108,0.122,0.114,0.154,0.0919,0.111,0.0957,0.116,0.0974,,0.114,0.0997,0.088,0.102,,,0.133,0.117,0.0991
M125V,0.13,,0.0975,,,,0.118,0.0903,0.121,0.134,0.138,0.122,0.132,0.11,,,0.144,0.105,0.0824
V126F,0.185,0.121,,,,0.1,0.116,0.11,,0.146,0.156,0.111,0.112,0.0895,0.112,,0.136,0.16,0.101
V126W,0.137,0.151,,0.145,,0.078,0.133,0.1,0.133,0.14,0.124,0.117,0.112,0.102,,0.0875,0.124,0.145,
T132V,0.107,0.0956,0.115,0.0984,0.085,0.109,0.105,0.104,,0.142,0.116,0.0797,0.0989,0.0782,0.109,,0.114,,0.0999
C111T,0.102,0.12,0.111,0.123,0.0996,0.0844,,,,0.101,0.141,0.0924,0.115,0.0911,0.126,,0.164,,0.123
C111Y,0.13,0.0896,,0.0948,0.0717,,0.113,0.0751,0.134,,0.119,0.129,,0.0924,,,,0.114,
F140K,0.0705,0.0687,,,,0.0535,0.0423,,0.0468,,0.0883,0.0432,0.0609,,,,0.0653,,
F140C,0.0613,0.059,,0.0648,0.0726,0.0649,0.0605,,,0.0619,,0.0684,0.066,0.0656,,,0.0653,,
E108T,0.0894,0.0723,,0.1,,0.0565,0.104,0.0553,0.0744,0.0609,0.0773,0.0613,0.0921,,,0.0727,0.0826,0.0605,0.0669
T114F,0.134,0.109,,0.131,0.0977,,0.0866,,,0.104,0.129,0.0905,0.107,0.0842,0.0939,,0.126,0.11,0.124
S124W,0.116,0.0803,0.0524,,,,0.12,0.0803,0.0927,,0.136,0.0983,0.0884,,,,0.1,0.091,0.0955
S123K,0.131,0.0837,,0.149,0.115,0.1,0.0951,0.101,,0.14,0.132,0.0915,0.12,0.102,,0.13,0.143,,0.102

# — the supplement of paper PMC12217912
